Laboratory results published in the supplement of paper PMC9174493.
The other results are listed elsewhere or left out. Single values of this set are uncertain. Values with irradiation are relative to irradiated vehicle.

What follows are molecules tested on A549-Dual (assay: NF-kB reporter (SEAP) activity, viability-corrected, relative to vehicle (fold change vs vehicle); higher = more activation of STING-IRF / NF-kB immune response reporter). Settings: 10 µM; irradiation: 8 Gy/4 fr.
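Also: viability correction based on the alamar blue assay, with concentrations leaving 10% survival or less dropped.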

SMILES	NF-kB reporter
CC(C)NCC(O)c1ccc(O)c(O)c1.CC(C)NCC(O)c1ccc(O)c(O)c1.O.O.O=S(=O)(O)O (stereo not given) [Isoproterenol sulfate dihydrate]	1.15
CC(=O)O.N=C(N)NCCCC(N)C(=O)NC(CCCNC(=N)N)C(=O)N1CCCC1C(=O)N1CC(O)CC1C(=O)NCC(=O)NC(Cc1cccs1)C(=O)NC(CO)C(=O)N1Cc2ccccc2CC1C(=O)N1C(C(=O)NC(CCCNC(=N)N)C(=O)O)CC2CCCCC21 (stereo not given) [Icatibant Acetate]	1.47
O=C1C(O)=C(C2CCC(c3ccc(Cl)cc3)CC2)C(=O)c2ccccc21 (stereo not given) [Atovaquone]	0.5
Cc1ncc(COP(=O)([O-])[O-])c(CN(CCN(CC(=O)O)Cc2c(COP(=O)([O-])O)cnc(C)c2O)CC(=O)O)c1O.[Mn].[Na+].[Na+].[Na+] [Mangafodipir Trisodium]	0.467
OC1COC2C(O)COC12 (stereo not given) [Isosorbide]	0.844
Nc1nc(=O)n(C2CSC(CO)O2)cc1F (stereo not given) [Emtricitabine]	0.543
CN(C)CC/C=C1/c2ccccc2COc2ccc(CC(=O)O)cc21.Cl [Olopatadine HCl]	0.956
CCC1OC(=O)C(C)C(OC2CC(C)(OC)C(O)C(C)O2)C(C)C(OC2OC(C)CC(N(C)C)C2O)C(C)(O)CC(C)C2NC(COCCOC)OC(C2C)C1(C)O (stereo not given) [Dirithromycin]	0.868
CCN(CC)C(=O)Nc1ccc(OCC(O)CNC(C)(C)C)c(C(C)=O)c1.Cl (stereo not given) [Celiprolol hydrochloride]	0.923
Cl.OC(CCN1CCCC1)(c1ccccc1)C1CCCCC1 (stereo not given) [Procyclidine HCl]	1.11
C#CC1(O)CCC2C3CCc4cc(OC)ccc4C3CCC21C (stereo not given) [Mestranol]	0.629
Cl.N[C@@H](CS)C(=O)O [L-Cysteine HCl]	1.37
OCC1OC(OCC2OC(OC3(CO)OC(CO)C(O)C3O)C(O)C(O)C2O)C(O)C(O)C1O (stereo not given) [Raffinose]	0.766
CN(C)CCOc1ccc(/C(=C(/CCCl)c2ccccc2)c2ccccc2)cc1.O=C(O)CC(O)(CC(=O)O)C(=O)O [Toremifene Citrate]	0.72
COC1(NC(=O)C(C(=O)[O-])c2ccc(O)cc2)C(=O)N2C(C(=O)[O-])=C(CSc3nnnn3C)COC21.[Na+].[Na+] (stereo not given) [Latamoxef sodium]	1.03
CC(CCC(=O)O)C1CCC2C3C(O)CC4CC(O)CCC4(C)C3CC(O)C12C (stereo not given) [Cholic acid]	1.14
O=C(O)CCC(=O)Nc1ccc(S(=O)(=O)Nc2nccs2)cc1 [Succinylsulfathiazole]	0.935
CCn1cc(C(=O)O)c(=O)c2cnc(N3CCCC3)nc21 [Piromidic Acid]	0.785
O.O.O.O.O=P([O-])(O)C(Cl)(Cl)P(=O)([O-])O.[Na+].[Na+] [Clodronate disodium tetrahydrate]	0.98
COCC(=O)Nc1cc(Sc2ccccc2)ccc1N=C(NC(=O)OC)NC(=O)OC [Febantel]	0.652
Oc1c(Cl)cc(Cl)cc1Sc1cc(Cl)cc(Cl)c1O [Bithionol]	1.59
CC(CCC(=O)O)C1CCC2C3C(O)CC4CC(O)CCC4(C)C3CCC12C (stereo not given) [Ursodiol]	0.808
CN(C)c1ccc2nc3ccc(=[N+](C)C)cc-3sc2c1.[Cl-] [Methylene Blue]	0.984
Clc1ccccc1C(c1ccccc1)(c1ccccc1)n1ccnc1 [Clotrimazole]	0.34
CC12CC3(O)OC(O1)C1(COC(=O)c4ccccc4)C3CC21OC1OC(CO)C(O)C(O)C1O (stereo not given) [Paeoniflorin]	0.756
Cl.Nc1c(Br)cc(Br)cc1CNC1CCC(O)CC1 (stereo not given) [Ambroxol HCl]	0.857
COCC1=C(C(=O)OC(C)OC(=O)OC(C)C)N2C(=O)C(NC(=O)/C(=N\OC)c3csc(N)n3)C2SC1 (stereo not given) [Cefpodoxime proxetil]	0.854
Cc1cc(NS(=O)(=O)c2ccc(N)cc2)no1 [Sulfamethoxazole]	0.916
CN(C)CCc1c[nH]c2ccc(CC3COC(=O)N3)cc12 (stereo not given) [Zolmitriptan]	0.876
CCC1OC(=O)C(C)C(OC2CC(C)(OC)C(O)C(C)O2)C(C)C(OC2OC(C)CC(N(C)C)C2O)C(C)(O)CC(C)C(=O)C(C)C(O)C1(C)O.N#CS (stereo not given) [Erythromycin thiocyanate]	0.698
